Experiments:
[1] = molecular target: T1, His-tagged PDGFRb extracellular domain (UniProt P09619 33-532, limits assumed); experiment: ELISA, His-tagged extracellular domain coated
T1 construct: extracellular domain; also called c-Kit family member; not shown: His tag
Description: (§1) His-tagged human c-Kit, His-tagged cynomolgus c-Kit, and His-tagged PDGFRa, PDGFRb, CSF1R, and FLT3 extracellular domains were immobilized on 96 well ELISA plates. Plates were washed with PBST (Phosphate buffered saline+0.05% Tween 20) and blocked for 1 hour with 1% BSA in PBS. Following washing with PBST, mAbs were added to the coated plate and incubated for 2 hours at room temperature. Plates were washed and incubated with HRP-conjugated goat anti-human IgG secondary antibody for 1 hour at room temperature. Following washing, antibody binding was detected colorimetrically by adding 3,3′,5,5′-tetramethylbenzidine (TMB) and incubated at room temperature for 10-20 minutes before adding 2.5N sulfuric acid stopping solution. Absorbance at 450 nm was measured on a plate reader (PerkinElmer). Data was analyzed using GraphPad Prism.

[2] = molecular target: T2, His-tagged CSF1R extracellular domain (UniProt P07333 fragment, limits assumed); experiment: ELISA, His-tagged extracellular domain coated
T2 construct: extracellular domain; also called c-Kit family member; not shown: His tag
T2 sequence (P07333 20-517 limits assumed): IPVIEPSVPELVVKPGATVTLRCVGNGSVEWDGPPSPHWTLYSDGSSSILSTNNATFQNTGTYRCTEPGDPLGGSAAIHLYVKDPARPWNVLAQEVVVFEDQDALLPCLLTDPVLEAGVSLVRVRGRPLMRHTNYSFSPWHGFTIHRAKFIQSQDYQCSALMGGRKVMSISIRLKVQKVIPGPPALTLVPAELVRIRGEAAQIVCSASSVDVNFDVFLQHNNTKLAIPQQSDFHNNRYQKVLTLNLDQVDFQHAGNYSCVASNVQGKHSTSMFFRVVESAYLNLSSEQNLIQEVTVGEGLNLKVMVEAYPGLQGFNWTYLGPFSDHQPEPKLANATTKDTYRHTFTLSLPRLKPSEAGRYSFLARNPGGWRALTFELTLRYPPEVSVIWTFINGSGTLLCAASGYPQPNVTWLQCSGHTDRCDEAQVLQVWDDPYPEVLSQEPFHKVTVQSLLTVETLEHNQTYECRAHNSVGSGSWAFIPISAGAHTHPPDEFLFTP
Description: as §1

[3] = molecular target: T3, His-tagged PDGFRa extracellular domain (UniProt P16234 24-528, limits assumed); experiment: ELISA, His-tagged extracellular domain coated
T3 construct: extracellular domain; also called c-Kit family member; not shown: His tag
T3 sequence (P16234 24-528 limits assumed): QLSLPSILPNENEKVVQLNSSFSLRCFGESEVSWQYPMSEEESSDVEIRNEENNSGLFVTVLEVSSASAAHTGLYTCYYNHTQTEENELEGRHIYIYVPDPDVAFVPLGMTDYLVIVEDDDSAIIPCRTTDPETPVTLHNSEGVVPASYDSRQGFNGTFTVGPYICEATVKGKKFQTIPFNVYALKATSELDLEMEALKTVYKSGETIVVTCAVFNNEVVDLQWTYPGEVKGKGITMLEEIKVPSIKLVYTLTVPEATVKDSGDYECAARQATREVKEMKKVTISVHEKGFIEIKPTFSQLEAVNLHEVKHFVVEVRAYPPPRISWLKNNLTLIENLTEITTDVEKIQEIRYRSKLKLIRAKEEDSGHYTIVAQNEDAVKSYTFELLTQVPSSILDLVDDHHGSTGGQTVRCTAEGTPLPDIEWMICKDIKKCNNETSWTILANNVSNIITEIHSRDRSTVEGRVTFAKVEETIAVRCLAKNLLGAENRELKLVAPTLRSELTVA
Description: as §1

[4] = molecular target: T4, His-tagged FLT3 extracellular domain (UniProt P36888 27-543, limits assumed); experiment: ELISA, His-tagged extracellular domain coated
T4 construct: extracellular domain; also called c-Kit family member; not shown: His tag
T4 sequence (looked up): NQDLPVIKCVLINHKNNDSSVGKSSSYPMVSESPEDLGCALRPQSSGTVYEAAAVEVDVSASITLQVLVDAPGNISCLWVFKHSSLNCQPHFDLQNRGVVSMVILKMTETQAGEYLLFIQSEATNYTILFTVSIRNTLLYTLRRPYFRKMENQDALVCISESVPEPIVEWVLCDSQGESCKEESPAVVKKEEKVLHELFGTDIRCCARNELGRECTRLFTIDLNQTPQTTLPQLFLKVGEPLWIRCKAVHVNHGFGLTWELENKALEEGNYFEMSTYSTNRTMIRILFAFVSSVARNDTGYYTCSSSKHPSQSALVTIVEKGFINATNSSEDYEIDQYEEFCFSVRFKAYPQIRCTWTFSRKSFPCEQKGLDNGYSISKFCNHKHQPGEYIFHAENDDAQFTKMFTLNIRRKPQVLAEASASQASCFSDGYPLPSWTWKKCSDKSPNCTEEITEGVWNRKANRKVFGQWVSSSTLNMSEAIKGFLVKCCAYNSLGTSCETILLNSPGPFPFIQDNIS
Description: as §1

[5] = molecular target: T5, Cynomolgus c-Kit (BLI analyte) (cynomolgus); experiment: BLI (Octet), antibody on capture sensor
T5 construct: also called Cynomoguls c-Kit
Description: Further, binding affinities of c-Kit antibodies to human c-Kit and cynomolgus c-Kit were measured by biolayer interferometry ([…]) using an Octect instrument. Briefly, capture sensors were loaded with test antibodies with 3-fold dilutions. The association and dissociation rates to were determined and used to calculate the equilibrium dissociation constant KD (Table 3).

T1 sequence (P09619 33-532 limits assumed): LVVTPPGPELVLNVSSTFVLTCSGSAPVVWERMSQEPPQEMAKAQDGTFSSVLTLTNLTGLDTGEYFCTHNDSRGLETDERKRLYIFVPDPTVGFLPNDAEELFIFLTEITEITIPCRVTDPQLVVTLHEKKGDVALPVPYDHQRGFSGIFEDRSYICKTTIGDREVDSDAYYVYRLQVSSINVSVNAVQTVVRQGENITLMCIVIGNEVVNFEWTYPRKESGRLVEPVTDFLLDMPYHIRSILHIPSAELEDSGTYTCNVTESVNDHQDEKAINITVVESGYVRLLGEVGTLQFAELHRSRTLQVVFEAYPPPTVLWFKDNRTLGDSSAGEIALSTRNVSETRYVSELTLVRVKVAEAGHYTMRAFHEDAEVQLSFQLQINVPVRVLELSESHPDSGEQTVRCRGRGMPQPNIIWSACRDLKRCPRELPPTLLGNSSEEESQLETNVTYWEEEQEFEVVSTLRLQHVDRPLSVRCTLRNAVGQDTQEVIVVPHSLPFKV

B1: Chimeric anti-c-Kit SR1 (chSR1) (antibody, human IgG1, kappa)
heavy: QVQLQQPGAELVKPGASVKMSCKASGYTFTSYNMHWVKQTPGQGLEWIGVIYSGNGDTSYNQKFKGKATLTADKSSSTAYMQINSLTSEDSAVYYCARERDTRFGNWGQGTLVTVSA[here human IgG1 constant region without letters]
light: NIVLTQSPASLAVSLGLRATISCRASESVDIYGNSFMHWYQQKPGQPPKLLIYLASNLESGVPARFSGSGSRTDFTLTIDPVEADDAATYYCQQNNEDPYTFGGGTKLEIKRTVAAPSVFIFPPSDEQLKSGTASVVCLLNNFYPREAKVQWKVDNALQSGNSQESVTEQDSKDSTYSLSSTLTLSKADYEKHKVYACEVTHQGLSSPVTKSFNRGEC
B1: no binding [1]; no binding [2]; no binding [3]. The binding result [4] was “no binding” and the Kd [5] was 3.34 nM.
